Assay results from patent US7393640B2, “Terminal-phosphate-labeled nucleotides with new linkers” (GE Healthcare Bio-Sciences Corp., priority 2003, dated 2008).

Assays:
Phi29 DNA polymerase = details: same procedure as example 15
Procedure: The reaction mixture contained 10 nM Cy5-20mer primer (SEQ ID NO: 1) and 40mer oligonucleotide template (SEQ ID NO: 5, shown above), 20 mM Tris-HCl, 0.01% Tween 20, 5 mM MgCl2, 0.5 mM MnCl2,1 mM DTT, Bacterial alkaline phosphatase (BAP) and 100 mM terminal phosphate labeled nucleotide and DNA polymerase. • a. All components with the exception of DNA polymerase were combined and incubated in the presence of 0.0015 U/ul of BAP for 5 minutes at the 25° C. to hydrolyze any unlabeled nucleotides. • b. 1 ul of the reaction mix removed as a time=0 point and quenched in 4 ul of 95% formamide/25 mM EDTA • c. 1 ul of DNA polymerase was added to initiate the reaction. 2 ul aliquots at different time points were taken (for rapid time courses at 15, 30, and 60 sec) and were quenched in 8 ul 95% formamide/25 mM EDTA. • d. Samples were denatured in a boiling water bath for 4 min, quick chilled on ice and 2 ul was loaded on a 25% (19:1-Acrylamide: Bisacylamide), 8M Urea, 1×TBE PAGE. Gels were run for approximately 1 hr at 500V. • e. DNA products were visualized on Storm 860 and quantitated by calculating the fraction of the total 20mer primer converted to 21mer product.
The following primer/template were used, A (for deoxyguanosine analog, SEQ ID NO: 1 and SEQ ID NO: 2) and B (for Thymidine Analogs, SEQ ID NO: 1 and SEQ ID NO: 5)
Same procedure was used as reported above in example 15.

9° N-exo- (NEN) = experiment: Rate of incorporation, primer extension 20mer to 21mer on gel; type: biochemical; details: 5 mM MgCl2, 0.5 mM MnCl2
Sequenase = experiment: as above; type: biochemical; details: 5 mM MgCl2, 0.5 mM MnCl2
Pfu = molecular target: T1, Pfu (Pyrococcus furiosus, UniProt P61875); experiment: as above; type: biochemical; details: 5 mM MgCl2, 0.5 mM MnCl2
T1 sequence (P61875 1-775): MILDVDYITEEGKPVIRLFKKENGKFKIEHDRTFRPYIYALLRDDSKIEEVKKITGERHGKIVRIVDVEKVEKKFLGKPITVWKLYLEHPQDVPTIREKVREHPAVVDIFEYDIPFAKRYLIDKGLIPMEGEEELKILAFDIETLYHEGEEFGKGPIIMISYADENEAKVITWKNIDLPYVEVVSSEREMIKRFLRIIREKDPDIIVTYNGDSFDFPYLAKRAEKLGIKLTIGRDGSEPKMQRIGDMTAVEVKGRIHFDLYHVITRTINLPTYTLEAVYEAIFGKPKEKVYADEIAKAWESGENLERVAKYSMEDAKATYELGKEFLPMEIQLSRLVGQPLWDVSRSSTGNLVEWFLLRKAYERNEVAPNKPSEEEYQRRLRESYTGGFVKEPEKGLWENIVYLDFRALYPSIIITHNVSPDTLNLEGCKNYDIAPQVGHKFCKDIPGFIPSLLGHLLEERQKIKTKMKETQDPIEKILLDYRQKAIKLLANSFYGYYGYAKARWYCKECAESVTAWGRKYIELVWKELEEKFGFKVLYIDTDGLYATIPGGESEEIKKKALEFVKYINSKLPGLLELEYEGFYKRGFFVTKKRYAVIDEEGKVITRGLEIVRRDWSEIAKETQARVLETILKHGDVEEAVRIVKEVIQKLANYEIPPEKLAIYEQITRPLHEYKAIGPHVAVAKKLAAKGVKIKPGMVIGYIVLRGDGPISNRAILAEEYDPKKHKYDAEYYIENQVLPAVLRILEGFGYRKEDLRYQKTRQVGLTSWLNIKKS

Thy B = experiment: as above; type: biochemical; details: 5 mM MgCl2, 0.5 mM MnCl2
Tne = experiment: as above; type: biochemical; details: 5 mM MgCl2, 0.5 mM MnCl2
delta-T10 = experiment: as above; type: biochemical; details: 5 mM MgCl2, 0.5 mM MnCl2
Phi-29 D12A = Phi-29 D12A (Bacillus phage phi29, UniProt P03680, D12A); experiment: as above; type: biochemical; details: 5 mM MgCl2, 0.5 mM MnCl2
Text: (§1) The rate of incorporation of the optimal linker attached dNTP (NH(CH2)7NH between the terminal phosphate and the dye moiety) was compared with the additional penta-lysine attached dNTP. A number of different DNA polymerases were used in the study to ascertain the effect of lysine moieties in the linker on the incorporation of nucleotides.

AMV = experiment: as above; type: biochemical; details: 5 mM MgCl2, 0.5 mM MnCl2
Text: as §1

Klenow exo- = molecular target: T2, Klenow exo- (Escherichia coli, UniProt P00582, D355A/E357A); experiment: as above; type: biochemical; details: 5 mM MgCl2, 0.5 mM MnCl2
T2 construct: Klenow exo-
Text: as §1

ThermoSequenase I = experiment: as above; type: biochemical; details: 5 mM MgCl2, 0.5 mM MnCl2
Ttm = experiment: as above; type: biochemical; details: 5 mM MgCl2, 0.5 mM MnCl2
Tsu = experiment: as above; type: biochemical; details: 5 mM MgCl2, 0.5 mM MnCl2
Tsp JS1 (WO 2003/004632) = experiment: as above; type: biochemical; details: 5 mM MgCl2, 0.5 mM MnCl2
Human pol beta = Human pol beta (Homo sapiens, UniProt P06746); experiment: as above; type: biochemical; details: 5 mM MgCl2, 0.5 mM MnCl2

Row | Compound | Rate (Phi29 DNA polymerase) [nM/min] | rate of incorporation (9° N-exo- (NEN)) [nM/min] | rate of incorporation (Sequenase) [nM/min] | rate of incorporation (Pfu) [nM/min] | rate of incorporation (Thy B) [nM/min] | rate of incorporation (Tne) [nM/min] | rate of incorporation (delta-T10) [nM/min] | rate of incorporation (Phi-29 D12A) [nM/min] | rate of incorporation (AMV) [nM/min] | rate of incorporation (Klenow exo-) [nM/min] | rate of incorporation (ThermoSequenase I) [nM/min] | rate of incorporation (Ttm) [nM/min] | rate of incorporation (Tsu) [nM/min] | rate of incorporation (Tsp JS1 (WO 2003/004632)) [nM/min] | rate of incorporation (Human pol beta) [nM/min]
1 | CCOc1ccc2c(c1)Oc1cc(OP(=O)(O)OP(=O)(O)OP(=O)(O)OP(=O)(O)OC[C@H]3O[C@@H](n4cnc5c(=O)[nH]c(N)nc54)C[C@@H]3O)ccc1C21OC(=O)c2ccccc21 (some centres unmarked) [dG4P-Ethylfluorescein, 2′-Deoxyguanosine-5′-(δ-3′-(6′-ethylfluorescein))tetraphosphate] | 9.1 |  |  |  |  |  |  |  |  |  |  |  |  |  | 
2 | CCOc1ccc2c(c1)Oc1cc(OP(=O)(O)OP(=O)(O)OP(=O)(O)OP(=O)(O)OP(=O)(O)OC[C@H]3O[C@@H](n4cnc5c(=O)[nH]c(N)nc54)C[C@@H]3O)ccc1C21OC(=O)c2ccccc21 (some centres unmarked) [dG5P-Ethylfluorescein, 2′-Deoxyguanosine-5′-(ε-3′-(6′-ethylfluorescein))pentaphosphate] | 17.6 |  |  |  |  |  |  |  |  |  |  |  |  |  | 
3 | TAMRA-amidoheptyl-gamma-amido-thymidine-triphosphate [dTTP-C7-TAMRA] | 1.96 | 6 | 0.2 | 4 | 1.29 | 2.3 | 6.2 | 2 | 0.2 | 0.2 | 0.2 | 1.2 | 1.00 | 0.2 | 5.6
